Experimental data from a collection of fitness landscapes (doi:10.1016/j.celrep.2020.107928).
Over roughly 81,000 sequences, “one-hybrid fitness for binding parS DNA” has its median near -0.17; the highest 2% begin near 0.51. This is one part of the list.

B1: Caulobacter ParB omega fusion; a variant is named by its letters at X, in order, B8GW30 (parent)
chain: MESVVVGEPGMSEGRRGLGRGLSALLGEVDAAPAQAPGEQLGGSREAPIEILQRNPDQPRRTFREEDLEDLSNSIREKGVLQPILVRPSPDTAGEYQIVAGERAWRAAQRAGLKTVPIMVRELDDLAVLEIGIIENVQRADLNVLEEALSYKVLMEKFERTQENIAQTIGKSXSHVANXMRLLXLPDEVQSYLVSGELTAXHARAIAAAADPVALAKQIIEGGLSVRETEALARKAPNLSAGKSKGGRPPRVKDTDTQALESDLSSVLGLDVSIDHRGSTGTLTITYATLEQLDDLCNRLTRGI

Variants of: B1
Test: one-hybrid fitness for binding parS DNA (scaled: cognate 1, non-cognate 0); higher = stronger binding
Conditions: with parS DNA site
Outline: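 On M9-minus-histidine containing 0.1 mM IPTG and 5 mM 3-AT, E. coli USO cells with a HIS3 reporter, site 19 bp from the promoter, grew 48 hours at 37°C to select Caulobacter ParB libraries randomised at four specificity codons. Plasmids from before and after were Illumina-sequenced, with three replicate libraries pooled and variants under 10 reads left out. Fitness is the log change in variant-to-wild-type read ratio, rescaled against cognate and non-cognate.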

Question: For KYDN, which “one-hybrid fitness for binding parS DNA” value is on record?
Answer: ≤ 0.2

Question: LVTP was tested. Which “one-hybrid fitness for binding parS DNA” value did it give?
Answer: ≤ 0.2

Question: Which “one-hybrid fitness for binding parS DNA” value does the source give for KVMG here?
Answer: ≤ 0.2

Question: Which “one-hybrid fitness for binding parS DNA” value does the source give for AIKC here?
Answer: ≤ 0.2

Question: With MWMC as the variant, how does the “one-hybrid fitness for binding parS DNA” value read?
Answer: ≤ 0.2

Question: For NWLC, which “one-hybrid fitness for binding parS DNA” value is on record?
Answer: ≤ 0.2

Question: LYEC was tested. Which “one-hybrid fitness for binding parS DNA” value did it give?
Answer: ≤ 0.2

Question: For SLMF, which “one-hybrid fitness for binding parS DNA” value is on record?
Answer: ≤ 0.2

Question: Which “one-hybrid fitness for binding parS DNA” value does the source give for KYLV here?
Answer: ≤ 0.2

Question: With SVNP as the variant, how does the “one-hybrid fitness for binding parS DNA” value read?
Answer: ≤ 0.2

Question: With ELDR as the variant, how does the “one-hybrid fitness for binding parS DNA” value read?
Answer: ≤ 0.2

Question: How did the “one-hybrid fitness for binding parS DNA” value turn out when SITD was run?
Answer: ≤ 0.2

Question: How did the “one-hybrid fitness for binding parS DNA” value turn out when TNKC was run?
Answer: ≤ 0.2

Question: How did the “one-hybrid fitness for binding parS DNA” value turn out when RNEG was run?
Answer: 0.677

Question: For SPCS, which “one-hybrid fitness for binding parS DNA” value is on record?
Answer: ≤ 0.2

Question: Which “one-hybrid fitness for binding parS DNA” value does the source give for LHNM here?
Answer: ≤ 0.2

Question: With PYGS as the variant, how does the “one-hybrid fitness for binding parS DNA” value read?
Answer: ≤ 0.2

Question: TQMY was tested. Which “one-hybrid fitness for binding parS DNA” value did it give?
Answer: ≤ 0.2

Question: QLGG was tested. Which “one-hybrid fitness for binding parS DNA” value did it give?
Answer: ≤ 0.2

Question: For HSLA, which “one-hybrid fitness for binding parS DNA” value is on record?
Answer: ≤ 0.2

Question: Which “one-hybrid fitness for binding parS DNA” value does the source give for ATVS here?
Answer: ≤ 0.2

Question: For WWHR, which “one-hybrid fitness for binding parS DNA” value is on record?
Answer: ≤ 0.2

Question: How did the “one-hybrid fitness for binding parS DNA” value turn out when MINT was run?
Answer: ≤ 0.2

Question: SVFK was tested. Which “one-hybrid fitness for binding parS DNA” value did it give?
Answer: ≤ 0.2

Question: For WYTS, which “one-hybrid fitness for binding parS DNA” value is on record?
Answer: ≤ 0.2

Question: APHE was tested. Which “one-hybrid fitness for binding parS DNA” value did it give?
Answer: ≤ 0.2

Question: With YYYS as the variant, how does the “one-hybrid fitness for binding parS DNA” value read?
Answer: ≤ 0.2

Question: For DDGE, which “one-hybrid fitness for binding parS DNA” value is on record?
Answer: ≤ 0.2

Question: For DFTG, which “one-hybrid fitness for binding parS DNA” value is on record?
Answer: ≤ 0.2

Question: Which “one-hybrid fitness for binding parS DNA” value does the source give for RLDD here?
Answer: ≤ 0.2

Question: How did the “one-hybrid fitness for binding parS DNA” value turn out when QPMV was run?
Answer: ≤ 0.2

Question: For QICC, which “one-hybrid fitness for binding parS DNA” value is on record?
Answer: ≤ 0.2

Question: With PKVW as the variant, how does the “one-hybrid fitness for binding parS DNA” value read?
Answer: ≤ 0.2

Question: For RIPP, which “one-hybrid fitness for binding parS DNA” value is on record?
Answer: ≤ 0.2

Question: How did the “one-hybrid fitness for binding parS DNA” value turn out when AMTR was run?
Answer: ≤ 0.2

Question: For LHVL, which “one-hybrid fitness for binding parS DNA” value is on record?
Answer: ≤ 0.2

Question: With DKAS as the variant, how does the “one-hybrid fitness for binding parS DNA” value read?
Answer: ≤ 0.2

Question: How did the “one-hybrid fitness for binding parS DNA” value turn out when KAVR was run?
Answer: ≤ 0.2

Question: RMTQ was tested. Which “one-hybrid fitness for binding parS DNA” value did it give?
Answer: ≤ 0.2

Question: With QQAM as the variant, how does the “one-hybrid fitness for binding parS DNA” value read?
Answer: ≤ 0.2

Question: TPTS was tested. Which “one-hybrid fitness for binding parS DNA” value did it give?
Answer: ≤ 0.2

Question: How did the “one-hybrid fitness for binding parS DNA” value turn out when FAES was run?
Answer: ≤ 0.2

Question: With QSAI as the variant, how does the “one-hybrid fitness for binding parS DNA” value read?
Answer: ≤ 0.2

Question: With KFRW as the variant, how does the “one-hybrid fitness for binding parS DNA” value read?
Answer: ≤ 0.2

Question: For YMPG, which “one-hybrid fitness for binding parS DNA” value is on record?
Answer: ≤ 0.2

Question: For CTLA, which “one-hybrid fitness for binding parS DNA” value is on record?
Answer: ≤ 0.2

Question: KHII was tested. Which “one-hybrid fitness for binding parS DNA” value did it give?
Answer: ≤ 0.2

Question: How did the “one-hybrid fitness for binding parS DNA” value turn out when YFSS was run?
Answer: 0.215

Question: AHHS was tested. Which “one-hybrid fitness for binding parS DNA” value did it give?
Answer: ≤ 0.2

Question: How did the “one-hybrid fitness for binding parS DNA” value turn out when LHLS was run?
Answer: ≤ 0.2

Question: How did the “one-hybrid fitness for binding parS DNA” value turn out when EHPS was run?
Answer: ≤ 0.2

Question: For YMTL, which “one-hybrid fitness for binding parS DNA” value is on record?
Answer: ≤ 0.2

Question: Which “one-hybrid fitness for binding parS DNA” value does the source give for QMRM here?
Answer: ≤ 0.2

Question: With PSIL as the variant, how does the “one-hybrid fitness for binding parS DNA” value read?
Answer: ≤ 0.2

Question: For HAYP, which “one-hybrid fitness for binding parS DNA” value is on record?
Answer: ≤ 0.2

Question: Which “one-hybrid fitness for binding parS DNA” value does the source give for ISTV here?
Answer: ≤ 0.2

Question: With PMAR as the variant, how does the “one-hybrid fitness for binding parS DNA” value read?
Answer: ≤ 0.2

Question: For TVRI, which “one-hybrid fitness for binding parS DNA” value is on record?
Answer: ≤ 0.2

Question: SSPG was tested. Which “one-hybrid fitness for binding parS DNA” value did it give?
Answer: ≤ 0.2

Question: With RHAK as the variant, how does the “one-hybrid fitness for binding parS DNA” value read?
Answer: ≤ 0.2

Question: For TNFT, which “one-hybrid fitness for binding parS DNA” value is on record?
Answer: ≤ 0.2

Question: How did the “one-hybrid fitness for binding parS DNA” value turn out when IAKV was run?
Answer: ≤ 0.2

Question: With KMAE as the variant, how does the “one-hybrid fitness for binding parS DNA” value read?
Answer: ≤ 0.2

Question: For INHG, which “one-hybrid fitness for binding parS DNA” value is on record?
Answer: ≤ 0.2

Question: For HAVG, which “one-hybrid fitness for binding parS DNA” value is on record?
Answer: ≤ 0.2

Question: With AFWR as the variant, how does the “one-hybrid fitness for binding parS DNA” value read?
Answer: ≤ 0.2

Question: For EGYC, which “one-hybrid fitness for binding parS DNA” value is on record?
Answer: ≤ 0.2

Question: Which “one-hybrid fitness for binding parS DNA” value does the source give for GLSA here?
Answer: ≤ 0.2

Question: For GCAN, which “one-hybrid fitness for binding parS DNA” value is on record?
Answer: ≤ 0.2

Question: With DNQK as the variant, how does the “one-hybrid fitness for binding parS DNA” value read?
Answer: ≤ 0.2

Question: Which “one-hybrid fitness for binding parS DNA” value does the source give for DSGG here?
Answer: ≤ 0.2

Question: KIPC was tested. Which “one-hybrid fitness for binding parS DNA” value did it give?
Answer: ≤ 0.2

Question: Which “one-hybrid fitness for binding parS DNA” value does the source give for GYVE here?
Answer: ≤ 0.2

Question: Which “one-hybrid fitness for binding parS DNA” value does the source give for QRYC here?
Answer: ≤ 0.2

Question: Which “one-hybrid fitness for binding parS DNA” value does the source give for QAVQ here?
Answer: ≤ 0.2

Question: FMDR was tested. Which “one-hybrid fitness for binding parS DNA” value did it give?
Answer: ≤ 0.2

Question: How did the “one-hybrid fitness for binding parS DNA” value turn out when FRLM was run?
Answer: ≤ 0.2
